Assay results taken from PubChem BioAssay AID1963576 (National Center for Advancing Translational Sciences (NCATS), 2024).
The campaign covered roughly 46,000 compounds. About 60 (0.1%) were called active. Roughly 3% stayed inconclusive and do not appear here. The call rests on the fitted dose curve; in most records, active means well fitted inhibition curve with a large enough effect; inconclusive means small, poorly fitted or top-dose-only effect; inactive means no such curve, though single readings can be large or run the other way. The list shows a part of the results.

Test: Primary qHTS assay for Inhibitors of ovarian cancer metastasis using an organotypic tumor microenvironment (TME) model. Further: nearly all actives have a fitted effect of over 65% in size.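 On activity change, negative = inhibition: plate controls were DMSO wells for no effect and tomatine positive control wells for full effect.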
Details: SKOV3ip1-GFP adhesion/invasion on 3D omental model, fluorescence; series mostly up to 45.8 µM; activity change, negative = inhibition: at the top concentration
How it was run: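 A 3D layer of primary human omental fibroblasts, mesothelial cells, fibronectin and collagen I, grown 48 hr, received SKOV3ip1-GFP cells in serum-free medium plus compounds at 0.36-46 umol/L. After 2 hr RT and 16 hr 37 C, fixed adherent GFP cells were counted; normalized to DMSO and tomatine.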

Activity change, negative = inhibition, inactive:
Cc1ccc(Nc2cc(C(=O)NCCc3ccccc3)c3ccccc3n2)c(C)c1 -1.44%
COc1cc(NC(=O)CN2CCN(S(=O)(=O)c3ccc(Br)cc3)CC2)cc(OC)c1 -3.29%
COc1ccc(CNS(=O)(=O)c2cc3c(cc2Cl)N(C(C)=O)CCO3)cc1 -0.403%
O=C(CSc1nc(-c2ccccc2)cn1-c1ccccc1F)Nc1ccc(F)cc1 -8.36%
CC1CCN(C(c2ccccc2)c2sc3nc(-c4ccco4)nn3c2O)CC1 (stereo not drawn) -11.1%
O=C(Nc1cccc(F)c1)C1CCCN(S(=O)(=O)c2cccc3cccnc23)C1 (stereo not drawn) -0.532%
Cc1nc2ccc(S(=O)(=O)N(C)CC(=O)Nc3ccc(C(C)C)cc3)cc2s1 -7.77%
Cc1ccccc1Cn1c(COc2ccc(Cl)cc2)nc2ccccc21 4.46%
COc1ccc(CNC(=O)C2CCN(c3nnc(-n4c(C)ccc4C)s3)CC2)c(OC)c1 -9.32%
CCCOC(=O)c1cccc(NC(=O)c2c(-c3ccccc3Cl)noc2C)c1 -0.638%
O=C(Cn1nc(-c2ccc(Cl)cc2)c2ccccc2c1=O)Nc1cccc(Br)c1 -0.194%
O=c1c2cc3c(cc2nc2sc(Nc4ccccc4)nn12)OCO3 -5.02%
COc1ccc(NC(=O)CN2CCN(CC(=O)Nc3ccccc3F)CC2)c(OC)c1 10.7%
Cc1ccc(-n2ncc(C(=O)NCCN3CCc4ccccc4C3)c2C2CCN(C(=O)OC(C)(C)C)CC2)cc1C -27.7%
CC1CCN(S(=O)(=O)c2ccc3c(c2)c(=O)c(C(=O)N2CCN(c4cccc(Cl)c4)CC2)cn3C)CC1 6.18%
COc1ccc(N2CCN(c3ncnc4c3cnn4-c3ccc(F)cc3)CC2)cc1 25.1%
COc1ccc(S(=O)(=O)c2c(Nc3cccc(C)c3C)sc(C(=O)c3ccccc3)c2N)cc1 -34.8%
CCOCCc1nn2c(=O)cc(COC(=O)c3ccc(NC(=O)C4CCCCC4)cc3)nc2s1 -5.51%
COc1ccc(NC(=O)C2=CC(c3ccco3)=NS(=O)(=O)N2C)cc1OC 0.827%
CCc1ccccc1NC(=O)CCCSc1nc(-c2ccco2)cc(C(F)(F)F)n1 8.38%
CCCN(C(=O)c1cn(C)c(=O)c2cc(OC)c(OC)cc12)c1ccc(CC)cc1 6.09%
CC1=C(C(=O)Nc2ccccc2Cl)C(c2cccc(O)c2)n2ncnc2N1 (stereo not drawn) -2.27%
Cc1nn(-c2ccccc2)c(OC(=O)c2ccccc2Br)c1S(=O)(=O)c1ccccc1 8.31%
O=C(CS(=O)(=O)c1cccc2nsnc12)N1CCN(c2ccccc2F)CC1 9.94%
Cc1cc(NC(=O)c2ccc3c(c2)N(Cc2cccc(Cl)c2)C(=O)c2ccccc2S3(=O)=O)ccc1Br 1.89%
COc1ccc(-c2cc(C(F)(F)F)nc(SCCC(=O)Nc3ccc(NC(C)=O)cc3)n2)cc1 -6.99%
O=C(Nc1ccccc1C(F)(F)F)c1ncoc1-c1ccco1 -19.1%
COc1cc(C2C(=O)N(C3CCCCC3)CC(=O)N2CCc2ccccc2)ccc1OC(C)C (stereo not drawn) 6.92%
Cc1oc(-c2cccc(Cl)c2)nc1CN1CCC(C(=O)NC(C)c2ccccc2)CC1 (stereo not drawn) 11.5%
CCOc1ccc(CN2C(=O)c3ccccc3Sc3ccc(C(=O)NCc4ccco4)cc32)cc1 -19.8%
Cc1oc2ncn(C)c(=O)c2c1C(=O)N1CCN(c2cccc(C(F)(F)F)c2)CC1 -3.81%
COCCNc1nc2c(c(=O)n(C)c(=O)n2C)n1Cc1c(F)cccc1Cl 6.46%
COc1ccc(CNC(=O)c2cc(Nc3ccccc3C)nc3ccccc23)cc1 8.94%
CCN(CC)c1ccc(CNCCCSc2nnnn2C)cc1 -2.86%
Cc1cccc(NC(=O)CSc2nnc(NC(=O)Nc3ccccc3)s2)c1C -5.44%
CSc1ccc(C2C(C(=O)Nc3ccccc3)=C(C)Nc3nc4ccccc4n32)cc1 (stereo not drawn) -2.18%
CCOc1ccccc1CNC(=O)c1ccc(CS(=O)Cc2cccc(Cl)c2)o1 (stereo not drawn) -5.48%
COc1cccc(C2CC(=O)Nc3c2ccc(C)c3C)c1OC (stereo not drawn) -6.72%
CCc1ccc(NC(=O)NCCc2c(C)nn(C)c2C)cc1 -1.71%
COc1cccc(NC(=O)CSc2nnc(-c3cccc(OC)c3)o2)c1 4.21%
Cc1ccc(NC(=O)CSc2ncc(-c3ccccc3)[nH]2)cc1 -2.61%
Cc1ccccc1CNC(=O)C(=O)NCC(c1ccco1)S(=O)(=O)c1cccs1 (stereo not drawn) 4.97%
CSc1ccc(CNC(=O)Cn2nc(N3CCN(c4ccccc4)CC3)ccc2=O)cc1 7.11%
Cc1ccc(Cl)cc1N1CCN(C(=O)c2cnn(C)c2C2CCN(C(=O)OC(C)(C)C)CC2)CC1 -6.15%
Cc1ccc(-c2nnc(Nc3ccccc3O)c3ccccc23)cc1 -12.1%
CC(=O)c1ccc(NC(=O)COc2ccccc2-c2nc(-c3ccc(C)cc3)no2)cc1 -14%
O=C(C1CCC(Cn2c(=O)c3sccc3n(Cc3ccccc3)c2=O)CC1)N1CCOCC1 (stereo not drawn) 0.0812%
Cc1ccc(OCC(=O)Nc2ccccc2C(=O)OCc2cc(=O)n3ccsc3n2)cc1 -22.9%
O=C(NC1CC(=O)N(c2cccc(F)c2)C1)c1ccc2c(c1)OCO2 (stereo not drawn) 0.344%
CCC(=O)N1CCc2cc(CNC(=O)c3ccccc3C)ccc21 4.04%
CCc1ccc(-n2c(=O)c3sc4ccccc4c3n(CC(=O)N(CC)Cc3ccccc3)c2=O)cc1 7.69%

outcome, inactive:
CCN(c1ccccc1)S(=O)(=O)c1c(C)nc2scc(C)n2c1=O
COc1ccc(-c2nc(SCC(=O)NC(C)CCc3ccccc3)n[nH]2)cc1 (stereo not drawn)
CCN(c1ccccc1)S(=O)(=O)c1nnc(NC(=O)c2ccccc2OC)s1
O=C1CC(c2c(Cl)cccc2Cl)c2c(ccc3ccccc23)N1 (stereo not drawn)
COc1ccccc1CNc1nc2ccc(C)cc2n2nnnc12
O=C(Nc1ccc(Cl)cc1)C1CCC(CNS(=O)(=O)c2ccc(Br)s2)CC1 (stereo not drawn)
CCCCN(C)CCCNC(=O)C1CCN(S(=O)(=O)CCC)CC1
COc1ccc(Cl)cc1NC(=O)CSc1cn(CC(=O)N2CCCCC2)c2ccccc12
CCc1ccc(NC(=O)CC2C(=O)NCCN2C(=O)c2ccc(F)cc2)cc1 (stereo not drawn)
O=C(Nc1cc2c(cc1C(=O)c1ccccc1Br)OCCO2)c1ccccc1
CCOC(=O)c1c(C)[nH]c(C)c1S(=O)(=O)N1CCCC(C(=O)Nc2cc(C)ccc2C)C1 (stereo not drawn)
CCCCNC(=O)CSc1nc2nc(C)c(Cc3c(F)cccc3Cl)c(C)n2n1
